37 sequences from publication PMC5892938 can be followed below.

This is one part of the list. At the low end of the ranking the order means little.

This experiment addresses GST-SBP-SLBP (stem-loop binding protein) (UniProt Q14493). Nature of the experiment: targeted RNA Bind-n-Seq.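 Also: DESeq read counts versus GST-SBP nonspecific binding control pulldown.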 As to conditions: RBNS binding buffer: 25 mM Tris pH 7.5, 150 mM KCl, 3 mM MgCl2, 0.1% Tween, 0.5 mg/mL BSA, 1 mM DTT; 27 nM protein, 750 pM RNA pool; temperature not stated; high values mean tight binding.
As to “GGUCACGUCUCAAUCAACUCAUCCUCCAGGGAAAUCCCUGGCUUAUUCAACAGCUCGCAGUCAAG”, the binding signal (log2 fold change) is -0.0358.

Take “GGUCACGUCUCAAUCAACUCUAUCCCCAGGGAAACCCCUGGUUAAUUCAACAGCUCGCAGUCAAG”: the binding signal (log2 fold change) was 0.0663.

On to “GGUCACGUCUCAAUCAACUCUUCUUCAGGAGUUUACUCCUGUUAUUUCAACAGCUCGCAGUCAAG”, for which the binding signal (log2 fold change) is 0.0783.

Turning to “GGUCACGUCUCAAUCAACUCUAUUCCCAGGGAAAGCCCUGGUAUUCUCAACAGCUCGCAGUCAAG”, the binding signal (log2 fold change) is 0.307.

“GGUCACGUCUCAAUCAACUCAUUCCCCAGGGAAAACCCUGGUUUUUUCAACAGCUCGCAGUCAAG”: the binding signal (log2 fold change) is -0.0655.

Regarding “GGUCACGUCUCAAUCAACUCUUCUCCCAGGGAAAGCCCUGGCAAUUUCAACAGCUCGCAGUCAAG”, the binding signal (log2 fold change) worked out at 0.428.

Consider “GGUCACGUCUCAAUCAACUCUUUCUCAGGAGUUUGCUCCUGCAUAUUCAACAGCUCGCAGUCAAG”, for which the binding signal (log2 fold change) turned out to be 0.0916.

For “GGUCACGUCUCAAUCAACUCAGUUUCCAGGGAAACCCCUGGCUUUUUCAACAGCUCGCAGUCAAG”, the binding signal (log2 fold change) worked out at 0.0285.

As to “GGUCACGUCUCAAUCAACUCAUCUUCCAGGGAAACCCCUGGCUAACUCAACAGCUCGCAGUCAAG”, the binding signal (log2 fold change) was -0.0873.

Turning to “GGUCACGUCUCAAUCAACUCUUCUUCCAGGGAAAACCCUGGCUAUUUCAACAGCUCGCAGUCAAG”, the binding signal (log2 fold change) came out at 0.117.

“GGUCACGUCUCAAUCAACUCUUUCCCCAGGGAAAACCCUGGCUAAUUCAACAGCUCGCAGUCAAG”: the binding signal (log2 fold change) worked out at 0.191.

With “GGUCACGUCUCAAUCAACUCAUCUUCCAGGGAAAACCCUGGUAAUCUCAACAGCUCGCAGUCAAG”, the binding signal (log2 fold change) is -0.0443.

Take “GGUCACGUCUCAAUCAACUCAUUUUCAGGAGUUUGCUCCUGUAUAUUCAACAGCUCGCAGUCAAG”: the binding signal (log2 fold change) was 0.193.

On to “GGUCACGUCUCAAUCAACUCUACUUCAGGAGUUUCCUCCUGCAUACUCAACAGCUCGCAGUCAAG”, for which the binding signal (log2 fold change) is 0.0781.

Turning to “GGUCACGUCUCAAUCAACUCAGUCCCCAGGGAAAACCCUGGCAUUUUCAACAGCUCGCAGUCAAG”, the binding signal (log2 fold change) is -0.0865.

For “GGUCACGUCUCAAUCAACUCAACUUCCAGGGAAAGCCCUGGUUAACUCAACAGCUCGCAGUCAAG”, the binding signal (log2 fold change) is 0.101.

Take “GGUCACGUCUCAAUCAACUCUACAGAGGGGGGGAAAACCCCUUUACCCUCGAAAUCAACAGCUCGCAGUCAAG”: the binding signal (log2 fold change) is -0.574.

As for “GGUCACGUCUCAAUCAACUCUAUCCCAGGAGUUUCCUCCUGCUUUUUCAACAGCUCGCAGUCAAG”, the binding signal (log2 fold change) was 0.204.

For the sequence “GGUCACGUCUCAAUCAACUCUUCGUCAGGAGUUUCCUCCUGCAAAUUCAACAGCUCGCAGUCAAG”, the binding signal (log2 fold change) is -0.0316.

With “GGUCACGUCUCAAUCAACUCUAUCCCAGGAGUUUCCUCCUGCAUUCUCAACAGCUCGCAGUCAAG”, the binding signal (log2 fold change) is 0.0925.

In the case of “GGUCACGUCUCAAUCAACUCUCCAGAGGGGGGGAAAACCCCUUUGCCCUCAUUUUCAACAGCUCGCAGUCAAG”, the binding signal (log2 fold change) is -0.378.

Turning to “GGUCACGUCUCAAUCAACUCAAUCUCAGGAGUUUCCUCCUGUAAACUCAACAGCUCGCAGUCAAG”, the binding signal (log2 fold change) turned out to be 0.196.

As for “GGUCACGUCUCAAUCAACUCAAUCCCAGGAGUUUACUCCUGCUAUCUCAACAGCUCGCAGUCAAG”, the binding signal (log2 fold change) worked out at 0.0657.

Consider “GGUCACGUCUCAAUCAACUCAUCCCCCAGGGAAAACCCUGGUAUUUUCAACAGCUCGCAGUCAAG”, for which the binding signal (log2 fold change) is -0.0851.

Take “GGUCACGUCUCAAUCAACUCGUUUUCAGGAGUUUGCUCCUGCAUUUUCAACAGCUCGCAGUCAAG”: the binding signal (log2 fold change) was -0.0256.

Regarding “GGUCACGUCUCAAUCAACUCUACUUCAGGAGUUUACUCCUGCAUAUUCAACAGCUCGCAGUCAAG”, the binding signal (log2 fold change) was determined as 0.167.

As for “GGUCACGUCUCAAUCAACUCAAUCCCCAGGGAAAUCCCUGGCAUAGUCAACAGCUCGCAGUCAAG”, the binding signal (log2 fold change) was 0.206.

With “GGUCACGUCUCAAUCAACUCAGUUUCCAGGGAAAGCCCUGGCAUAUUCAACAGCUCGCAGUCAAG”, the binding signal (log2 fold change) is -0.074.

Take “GGUCACGUCUCAAUCAACUCUUUUUCAGGAGUUUUCUCCUGCUAUCUCAACAGCUCGCAGUCAAG”: the binding signal (log2 fold change) came out at 0.0163.

With “GGUCACGUCUCAAUCAACUCAUCUCCAGGAGUUUCCUCCUGUAAAUUCAACAGCUCGCAGUCAAG”, the binding signal (log2 fold change) came to 0.222.

Turning to “GGUCACGUCUCAAUCAACUCAUUCUCAGGAGUUUCCUCCUGUUUUUUCAACAGCUCGCAGUCAAG”, the binding signal (log2 fold change) is -0.0786.

Regarding “GGUCACGUCUCAAUCAACUCAAAAGAGGGGGGGAAAACCCCUUUACCCUCGAAAUCAACAGCUCGCAGUCAAG”, the binding signal (log2 fold change) is -0.33.

In the case of “GGUCACGUCUCAAUCAACUCAGUCUCCAGGGAAAGCCCUGGCAUUCUCAACAGCUCGCAGUCAAG”, the binding signal (log2 fold change) is -0.133.

“GGUCACGUCUCAAUCAACUCAGUCCCCAGGGAAACCCCUGGCUUUUUCAACAGCUCGCAGUCAAG”: the binding signal (log2 fold change) came to 0.00749.

On to “GGUCACGUCUCAAUCAACUCAGUCCCAGGAGUUUGCUCCUGCAUUUUCAACAGCUCGCAGUCAAG”, for which the binding signal (log2 fold change) was -0.0532.

On to “GGUCACGUCUCAAUCAACUCUACUCCAGGAGUUUCCUCCUGCUAAUUCAACAGCUCGCAGUCAAG”, for which the binding signal (log2 fold change) is -0.14.

“GGUCACGUCUCAAUCAACUCAUCAGAGGGGGGGAAAACCCCUUUGCCCUCAUAAUCAACAGCUCGCAGUCAAG”: the binding signal (log2 fold change) was 0.154.
